According to the supplement of paper PMC3334620:
Over roughly 33,000 sequences, “E-score (-0.5 to 0.5)” has its median near -0.016; the highest 2% begin near 0.32. The list shows a part of the results.

target: T1, Stp1 (UniProt B3LFK1); assay: PBM E-score (8-mer binding enrichment) (E-score (-0.5 to 0.5)); higher = stronger / more preferred TF binding; most listed sequences are background and not binding sites; conditions: protein concentration: 200 nM; construct: GST-full length
T1 sequence: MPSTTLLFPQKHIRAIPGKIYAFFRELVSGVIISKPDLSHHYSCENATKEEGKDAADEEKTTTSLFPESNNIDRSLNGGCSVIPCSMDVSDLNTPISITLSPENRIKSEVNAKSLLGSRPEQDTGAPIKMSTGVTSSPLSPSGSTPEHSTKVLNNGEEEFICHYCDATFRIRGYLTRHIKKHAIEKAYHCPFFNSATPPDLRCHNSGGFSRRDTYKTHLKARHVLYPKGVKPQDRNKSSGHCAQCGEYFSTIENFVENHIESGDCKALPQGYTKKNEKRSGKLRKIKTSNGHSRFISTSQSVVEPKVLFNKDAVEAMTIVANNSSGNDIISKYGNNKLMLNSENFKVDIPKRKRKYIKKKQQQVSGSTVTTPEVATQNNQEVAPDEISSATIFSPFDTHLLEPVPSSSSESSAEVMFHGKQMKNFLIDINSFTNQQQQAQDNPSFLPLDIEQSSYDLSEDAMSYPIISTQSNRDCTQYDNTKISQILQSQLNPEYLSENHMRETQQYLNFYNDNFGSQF
Summary of the method: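 GST-tagged yeast TFs (full-length or DNA-binding domain) were made by PURExpress in vitro transcription/translation and applied at about 100-200 nM to universal all-10-mer Agilent arrays. The arrays were made double-stranded by primer extension, on fresh or once-stripped slides. Bound protein was detected with fluorescent anti-GST, and scans were normalised with masliner. Each ungapped eight-base word, pooled with its reverse complement, received an E-score (modified Wilcoxon-Mann-Whitney statistic) from the Universal PBM Analysis Suite.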

Sequence | PBM E-score
CAAAATCA | 0.0708
CGAGGTCA | -0.205
GCTCCCGA | -0.19
CGTATGGC | 0.267
GTCTTGGA | -0.143
AATAGAGC | 0.107
GGCCCGGA | -0.222
CCGCGCCC | 0.279
AAGAGTAC | -0.0411
TCTCAAGA | 0.0764
AACGCAAT | 0.251
ACCACTTC | -0.242
AAGCATCA | -0.109
AGCTGCGC | -0.00969
TAAATCTA | 0.0626
AGGGAAGG | -0.31
CCATTCTC | -0.0651
ACTTGCGC | 0.0537
CGGTGTAG | -0.122
ATAGTACA | 0.0423
AGACGTAC | -0.195
AACCTCTC | -0.213
AACGGCCG | 0.333
CCCAGGCA | -0.162
CGATACTC | 0.00075

Sequence | PBM E-score
CCGTGAGG | 0.0309
CTGTTGGC | -0.186
ACGAGTGA | -0.0566
AGTTCTAT | -0.112
ATGCGGAG | -0.0518
ACAACATG | 0.136
TCGTTAGA | -0.0359
GTAACTTA | -0.00295
GGTTTCAC | -0.0723
GCCTCTCA | 0.00233
CATCCCGA | -0.00414
GTATAAAA | 0.295
GGCTGGGA | -0.249
ACACCTAT | -0.0456
TGTTAGAA | 0.0155
CGCGCGAC | 0.12
ACACGCAC | 0.0603
TCCGAACA | -0.0393
AAAGGGGA | -0.302
ACACTGTG | 0.0704
AGTAAGTG | -0.12
TCTTAGCA | -0.0676
AGTGACCA | -0.242
GTGAACAC | -0.15
ATATATTA | 0.329

Sequence | PBM E-score
GGCGCGAA | 0.37
CGTACCAC | 0.11
GCTACCCC | -0.292
CCCATGCC | -0.0109
CACGCAAC | 0.214
AACACCTA | -0.0644
ACGGTCAC | -0.305
CAGCAGCC | 0.0196
CCGCCAGA | -0.00376
GACACACA | 0.0818
ATCCGCCC | -0.217
ACGCCACG | 0.0972
CAGAAGGG | -0.188
TCCAGTAA | -0.233
TACTAGCA | -0.0131
AGTGTTTG | 0.0488
CTTAGGAC | -0.0947
CCCACGAA | 0.105
CGTTTCTA | 0.033
ATTTCGCC | 0.336
GATACCTA | 0.00089
ATCATGAG | -0.00837
GATACAGA | 0.124
ACGAATCG | 0.182
CGGTTGCA | -0.0488

Sequence | PBM E-score
CGGAGCCG | 0.302
AGCGAACG | -0.0739
AGCTACAC | 0.00428
CTTCTCGC | 0.0351
CGGCTGAC | 0.0536
ACGATGTC | -0.0396
AGCGTTAT | -0.106
CCAAGATA | -0.0296
AACTGGCC | -0.0401
AAACCCTT | -0.142
CATCGCCA | 0.0899
GATATCTA | -0.0487
CGCTTAGA | -0.263
GTTCTCTA | -0.0124
GAAGGTGC | -0.169
CATGCCAG | -0.0265
AATCCTGG | -0.129
GATAGGTA | -0.0532
GCTCGCGA | 0.017
TCGATCGA | 0.212
ACATTTAG | -0.195
AAGTTTGT | 0.107
CCATCCGC | 0.111
ACATCGTG | 0.128
AAGGATTG | -0.0374

Sequence | PBM E-score
AGCACCAA | -0.118
GTCACATA | 0.123
AACCGATC | 0.0212
CTCCGGCC | -0.296
CACACACC | -0.176
CATCTCAC | 0.0478
CTCTCTCA | -0.0887
ATGCCGTA | 0.478
CGCATTGC | 0.258
AAGTACCG | 0.03
CACGCCTG | -0.136
CTGAACGA | -0.0923
TATACGGA | 0.0644
CCCTTTAA | 0.0854
AGACAGCC | -0.149
CCACCGTC | -0.0976
TATGCTAA | 0.0381
AAGTTCTC | -0.115
AGTAAGCG | 0.126
CGGATCAC | 0.0376
GCCTTACA | 0.208
ACGAGGAC | -0.161
CGCACTAA | -0.0203
CGTATCGC | 0.126
TTCCACAA | 0.163

Sequence | PBM E-score
TACAGCCA | -0.0214
CGTAATAA | 0.0445
GCCCCCAC | -0.333
CTCCTCTC | -0.263
ATCGAAGA | 0.171
GAGCCGAA | 0.232
ATTCCACC | -0.056
AAGGGAAT | -0.147
ACTGACAC | 0.074
AAAGAGGC | 0.00916
ATGCAGGC | -0.111
CGATCCAC | -0.121
CCTCAAGG | -0.0722
TGGCGTAA | 0.0095
AGGCGTGA | 0.0215
CAAGGCAG | 0.0951
CCGCTCCA | -0.0259
ACCCACCG | -0.133
GATAAGCC | -0.257
AACCGTAC | -0.0138
CCCCGTTC | -0.235
ACGTTAAT | 0.112
CACCGAAC | 0.205
CCGATCAG | 0.058
TACCCAGA | -0.221

Sequence | PBM E-score
CACGCGTG | 0.241
ATCGGGAA | -0.0127
CGTAGTTA | 0.125
AGCGCACA | -0.322
GTAATCAC | 0.0423
GGCTTGTA | 0.00445
ACATGGGA | -0.0523
GAAGGGGA | -0.155
ATTACTAG | 0.0532
ATTCCTGG | -0.0882
GCGGCCAA | 0.161
ACACGGAC | 0.217
CACAATTA | 0.142
GTATGTAA | 0.138
GACCGGTC | -0.341
GACCTTCC | -0.227
CATATTAG | 0.209
AGGCTCCA | -0.0273
CCCGTAAA | 0.226
CGCCGCAG | 0.436
CGCTTGCA | -0.0492
ATTTTACA | -0.0146
